Lines with a small IC50 respond at low doses; a limit (>, <) means that the fit lies beyond the doses tested. AUC, from the same fit, is the share of area under the viability curve across the 256-fold dose range; values near 1 show little effect. The top dose, if marked as inferred, was derived from the fitted curves, not read from the paper. Some results are limits rather than exact numbers.

Compound in this test: CCOc1cc2ncc(C#N)c(Nc3ccc(F)c(Cl)c3)c2cc1NC(=O)/C=C/CN(C)C [EKB-569]
The test can be described thus: Viability of human cancer cell lines after 72 h of drug (GDSC screen). To be noted: top dose inferred. How it is done: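 Human cancer cell lines in 384-well plates, medium with 10% serum, drug for 72 h over a 256-fold dose range (nine 2-fold or five 4-fold steps up to the top dose). Adherent lines were fixed and stained with the nucleic acid dye Syto60, suspension lines read with resazurin; signal relative to control wells, capped at 0 and 100%. One two-parameter sigmoid per drug and line, fitted in a mixed model over all curves with the slope shared within a line.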
“EW-3 (Ewing sarcoma, adherent, top dose 2.5 µM)”: the AUC was determined as 0.887 and the IC50 (in general, the midpoint of a concentration-inhibition curve) was above 2500 nM.

Take CS1 (bone, adherent, top dose 2.5 µM): the AUC was found to be 0.773 and the IC50 was 1090 nM.

As for “A427 (non-small cell lung carcinoma, adherent, top dose 2.5 µM)”, the AUC was determined as 0.941 and the IC50 is above 2500 nM.

With “HuP-T3 (pancreas, adherent, top dose 2.5 µM)”, the AUC was 0.836 and the IC50 came out at 2220 nM.

Turning to “NCI-H1568 (lung adenocarcinoma, adherent, top dose 2.5 µM)”, the AUC came out at 0.831 and the IC50 is 2160 nM.

In the case of “D-263MG (glioma, adherent, top dose 2.5 µM)”, the AUC was determined as 0.983 and the IC50 was above 2500 nM.

For the cell line “EBC-1 (lung squamous cell carcinoma, adherent, top dose 2.5 µM)”, the AUC was 0.955 and the IC50 was above 2500 nM.

Regarding “IST-MES1 (mesothelioma, adherent, top dose 2.5 µM)”, the AUC stood at 0.967 and the IC50 is above 2500 nM.

In the case of “HeLa (cervix, adherent, top dose 2.5 µM)”, the AUC turned out to be 0.976 and the IC50 was above 2500 nM.

Consider “ES4 (Ewing sarcoma, adherent, top dose 2.5 µM)”, for which the AUC came out at 0.59 and the IC50 was 287 nM.

Regarding “MOG-G-CCM (glioma, adherent, top dose 2.5 µM)”, the AUC was 0.836 and the IC50 was 2070 nM.

On to “NB1 (neuroblastoma, semi-adherent, top dose 2.5 µM)”, for which the AUC is 0.931 and the IC50 was above 2500 nM.

As for “A2780 (ovary, semi-adherent, top dose 2.5 µM)”, the AUC is 0.636 and the IC50 turned out to be 376 nM.

With “NCI-H661 (large cell lung carcinoma, adherent, top dose 2.5 µM)”, the AUC amounted to 0.852 and the 50% inhibitory concentration (IC50) is above 2500 nM.

As to “GP5d (large intestine, adherent, top dose 2.5 µM)”, the AUC turned out to be 0.818 and the IC50 came out at 1220 nM.

For “Ca-Ski (cervix, adherent, top dose 2.5 µM)”, the AUC was 0.719 and the IC50 turned out to be 709 nM.

With “DU-145 (prostate, adherent, top dose 2.5 µM)”, the AUC was found to be 0.973 and the IC50 was above 2500 nM.

Turning to “23132-87 (stomach, adherent, top dose 2.5 µM)”, the AUC was found to be 0.959 and the IC50 was above 2500 nM.

In the case of “NCI-H1092 (small cell lung carcinoma, suspension, top dose 2.5 µM)”, the AUC stood at 0.977 and the IC50 was above 2500 nM.

In the case of “BB65-RCC (kidney, adherent, top dose 2.5 µM)”, the AUC came to 0.938 and the IC50 was above 2500 nM.

Take “HCC-44 (lung adenocarcinoma, adherent, top dose 2.5 µM)”: the AUC was 0.928 and the IC50 was above 2500 nM.

Turning to “ARH-77 (myeloma, suspension, top dose 2.5 µM)”, the AUC came to 0.79 and the IC50 was 1070 nM.

Regarding “OVISE (ovary, adherent, top dose 2.5 µM)”, the AUC came to 0.632 and the IC50 was 410 nM.

On to “EoL-1-cell (haematopoietic neoplasm, suspension, top dose 2.5 µM)”, for which the AUC is 0.895 and the IC50 was determined as 2420 nM.

As to “BICR78 (head and neck, adherent, top dose 2.5 µM)”, the AUC stood at 0.933 and the IC50 was above 2500 nM.

Consider “PFSK-1 (medulloblastoma, adherent, top dose 2.5 µM)”, for which the AUC was 0.926 and the IC50 was above 2500 nM.

In the case of “PANC-04-03 (pancreas, adherent, top dose 2.5 µM)”, the AUC was 0.975 and the IC50 was above 2500 nM.

For KGN (ovary, adherent, top dose 2.5 µM), the AUC came out at 0.833 and the IC50 came to 2110 nM.

For the cell line “SU-DHL-1 (anaplastic large cell lymphoma, suspension, top dose 2.5 µM)”, the AUC was found to be 0.844 and the concentration for half-maximal inhibition (IC50) was found to be 1100 nM.

On to “RCC-ER (kidney, adherent, top dose 2.5 µM)”, for which the AUC worked out at 0.926 and the IC50 is above 2500 nM.

For the cell line “LP-1 (myeloma, suspension, top dose 2.5 µM)”, the AUC turned out to be 0.979 and the IC50 was above 2500 nM.

In the case of “HA7-RCC (kidney, adherent, top dose 2.5 µM)”, the AUC turned out to be 0.916 and the IC50 is above 2500 nM.

Take “NCI-H1993 (lung adenocarcinoma, adherent, top dose 2.5 µM)”: the AUC was 0.849 and the IC50 is above 2500 nM.

Take TT (thyroid, adherent, top dose 2.5 µM): the AUC stood at 0.982 and the IC50 is above 2500 nM.

On to “Capan-2 (pancreas, adherent, top dose 2.5 µM)”, for which the AUC stood at 0.943 and the concentration for half-maximal inhibition (IC50) was above 2500 nM.

Consider “KYSE-70 (oesophagus, adherent, top dose 2.5 µM)”, for which the AUC came to 0.94 and the half-maximal inhibitory concentration (IC50) was above 2500 nM.

As to “HCC38 (breast, adherent, top dose 2.5 µM)”, the AUC stood at 0.901 and the IC50 is above 2500 nM.

In the case of “SUP-M2 (anaplastic large cell lymphoma, suspension, top dose 2.5 µM)”, the AUC is 0.73 and the IC50 worked out at 580 nM.

On to “COLO-684 (endometrium, suspension, top dose 2.5 µM)”, for which the AUC was determined as 0.911 and the IC50 is above 2500 nM.

With “AGS (stomach, adherent, top dose 2.5 µM)”, the AUC was 0.972 and the IC50 is above 2500 nM.

For “NB14 (neuroblastoma, adherent, top dose 2.5 µM)”, the AUC was 0.987 and the IC50 was above 2500 nM.

As for “TGBC24TKB (biliary tract, adherent, top dose 2.5 µM)”, the AUC stood at 0.948 and the IC50 is above 2500 nM.

Consider “OACp4C (oesophagus, adherent, top dose 2.5 µM)”, for which the AUC was found to be 0.583 and the IC50 was 276 nM.

Turning to “NCI-H1666 (lung adenocarcinoma, semi-adherent, top dose 20 µM)”, the AUC was 0.835 and the IC50 came out at 14900 nM.

Regarding “OCUB-M (breast, adherent, top dose 2.5 µM)”, the AUC was 0.349 and the IC50 amounted to 63.5 nM.

For the cell line “SW1573 (lung adenocarcinoma, adherent, top dose 2.5 µM)”, the AUC is 0.95 and the IC50 is above 2500 nM.

With “CAL-72 (osteosarcoma, adherent, top dose 2.5 µM)”, the AUC was determined as 0.984 and the IC50 is above 2500 nM.

Turning to “MFE-319 (endometrium, adherent, top dose 2.5 µM)”, the AUC amounted to 0.975 and the IC50 is above 2500 nM.

“BT-483 (breast, adherent, top dose 20 µM)”: the AUC amounted to 0.926 and the IC50 is above 20000 nM.

The values are drawn from the supplement of paper PMC4967469.
